Data from the supplement of paper PMC4967469.
Lines with a small IC50 respond at low doses; a limit (>, <) means that the fit lies beyond the doses tested. AUC is the area under the same curve over the 256-fold range up to the top dose, as a fraction; the more sensitive the line, the further below 1. For some assays here: An inferred top dose was derived from the fitted curves, not read from the paper. For some assays here: Drugs with an entry number were screened twice under separate entries, and the two screens often disagree.

Key:
Experiment in all cases: Viability of human cancer cell lines after 72 h of drug (GDSC screen)
Docetaxel = compound: CC(=O)O[C@@]12CO[C@@H]1C[C@H](O)[C@@]1(C)C(=O)[C@H](O)C3=C(C)[C@@H](OC(=O)[C@H](O)[C@@H](NC(=O)OC(C)(C)C)c4ccccc4)C[C@@](O)([C@@H](OC(=O)c4ccccc4)[C@H]21)C3(C)C [Docetaxel]; settings: top dose 0.0125 µM
Experimental: (§1)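 Human cancer cell lines in 384-well plates, medium with 10% serum, drug for 72 h over a 256-fold dose range (nine 2-fold or five 4-fold steps up to the top dose). Adherent lines were fixed and stained with the nucleic acid dye Syto60, suspension lines read with resazurin; signal relative to control wells, capped at 0 and 100%. One two-parameter sigmoid per drug and line, fitted in a mixed model over all curves with the slope shared within a line.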

AMG-706 = compound: CC1(C)CNc2cc(NC(=O)c3cccnc3NCc3ccncc3)ccc21 [AMG-706]; settings: top dose 2 µM; top dose inferred
Experimental: as §1

JNK Inhibitor VIII = compound: CCOc1nc(NC(=O)Cc2cc(OC)ccc2OC)cc(N)c1C#N [JNK Inhibitor VIII]; settings: top dose 10 µM; top dose inferred
Experimental: as §1

NSC-207895 = compound: CN1CCN(c2ccc([N+](=O)[O-])c3no[n+]([O-])c23)CC1 [NSC-207895]; settings: top dose 20 µM; top dose inferred
Experimental: as §1

FTI-277 = compound: COC(=O)[C@H](CCSC)NC(=O)c1ccc(NC[C@@H](N)CS)cc1-c1ccccc1 [FTI-277]; settings: top dose 1.024 µM; top dose inferred
Experimental: as §1

YM155 = compound: COCC[n+]1c2c(n(Cc3cnccn3)c1C)C(=O)c1ccccc1C2=O [YM155]; settings: top dose 5.12 µM
Experimental: as §1

OSI-906 = compound: C[C@]1(O)C[C@@H](c2nc(-c3ccc4ccc(-c5ccccc5)nc4c3)c3c(N)nccn32)C1 [OSI-906]; settings: top dose 2.56 µM; top dose inferred
Experimental: as §1

SB-715992 = compound: Cc1ccc(C(=O)N(CCCN)[C@@H](c2nc3cc(Cl)ccc3c(=O)n2Cc2ccccc2)C(C)C)cc1 [SB-715992]; settings: top dose 0.128 µM; top dose inferred
Experimental: as §1

JQ1 = compound: Cc1sc2c(c1C)C(c1ccc(Cl)cc1)=N[C@@H](CC(=O)OC(C)(C)C)c1nnc(C)n1-2 [JQ1]
Experimental: as §1

Belinostat = compound: O=C(/C=C/c1cccc(S(=O)(=O)Nc2ccccc2)c1)NO [Belinostat]; settings: top dose 20 µM; top dose inferred
Experimental: as §1

JNJ-26854165 = compound: c1ccc2c(CCNc3ccc(Nc4ccncc4)cc3)c[nH]c2c1 [JNJ-26854165]; settings: top dose 10 µM
Experimental: as §1

[1] = top dose 1 µM, screen: GDSC drug entry 1218, top dose inferred
[2] = top dose 2.56 µM, screen: GDSC drug entry 163

Cell Line | AUC (Docetaxel) | IC50 (Docetaxel) | AUC (AMG-706) | IC50 (AMG-706) | AUC (JNK Inhibitor VIII) | IC50 (JNK Inhibitor VIII) | AUC (NSC-207895) | IC50 (NSC-207895) | AUC (FTI-277) | IC50 (FTI-277) | AUC (YM155) | IC50 (YM155) | AUC (OSI-906) | IC50 (OSI-906) | AUC (SB-715992) | IC50 (SB-715992) | AUC (JQ1; [1]) | IC50 (JQ1; [1]) | AUC (JQ1; [2]) | IC50 (JQ1; [2]) | AUC (Belinostat) | IC50 (Belinostat) | AUC (JNJ-26854165) | IC50 (JNJ-26854165)
HCC1569 (breast, adherent) | 0.957 | > 12.5 nM | 0.981 | > 2000 nM | 0.98 | > 10000 nM | 0.972 | > 20000 nM | 0.974 | > 1020 nM | 0.331 | 92 nM | 0.972 | > 2560 nM | 0.917 | > 128 nM | 0.957 | > 1000 nM | 0.56 | 247 nM | 0.535 | 1610 nM | 0.853 | > 10000 nM
ESS-1 (endometrium, adherent) | 0.671 | 2.21 nM | 0.98 | > 2000 nM | 0.982 | > 10000 nM | 0.679 | 3730 nM | 0.986 | > 1020 nM | 0.02 | < 20 nM | 0.988 | > 2560 nM | 0.888 | 119 nM | 0.989 | > 1000 nM | 0.756 | 794 nM | 0.353 | 512 nM | 0.893 | 
MOG-G-CCM (glioma, adherent) | 0.409 | 0.422 nM | 0.896 | > 2000 nM | 0.958 | > 10000 nM | 0.89 | > 20000 nM | 0.941 | > 1020 nM | 0.212 | 38.6 nM | 0.981 | > 2560 nM | 0.793 | 69.8 nM | 0.981 | > 1000 nM | 0.529 | 194 nM | 0.347 | 437 nM | 0.881 | > 10000 nM
P12-ICHIKAWA (T-cell lymphoblastic leukaemia, suspension) | 0.99 | > 12.5 nM | 0.993 | > 2000 nM | 0.993 | > 10000 nM | 0.862 | 11100 nM | 0.993 | > 1020 nM | 0.102 | 26.6 nM | 0.994 | > 2560 nM | 0.549 | 10.6 nM | 0.994 | > 1000 nM | 0.757 | 708 nM | 0.133 | 135 nM | 0.967 | > 10000 nM
HEC-1 (endometrium, adherent) | 0.721 | 3.2 nM | 0.989 | > 2000 nM | 0.989 | > 10000 nM | 0.976 | > 20000 nM | 0.987 | > 1020 nM | 0.104 | < 20 nM | 0.988 | > 2560 nM | 0.972 | > 128 nM | 0.987 | > 1000 nM | 0.716 | 636 nM | 0.499 | 1240 nM | 0.914 | > 10000 nM
SW1271 (small cell lung carcinoma, adherent) | 0.752 | 4.71 nM | 0.984 | > 2000 nM | 0.984 | > 10000 nM | 0.837 | 16400 nM | 0.939 | > 1020 nM | 0.037 | < 20 nM | 0.97 | > 2560 nM | 0.926 | > 128 nM | 0.955 | > 1000 nM | 0.779 | 1210 nM | 0.452 | 908 nM | 0.928 | > 10000 nM
